Source: a compilation of properties of binary mixtures (doi:10.1016/j.molliq.2016.11.066)
Some of these densities may be calculated back from excess volumes.

Assay: xn = mol fraction of the nth substance listed
Conditions: 101 kPa

COCCO + CCCC[n+]1ccn(C)c1.F[P-](F)(F)(F)(F)F
x2 = 0
Conditions | mass density [kg/m3]
298.15 K | 960.3
303.15 K | 955.7
308.15 K | 951.1
313.15 K | 946.4
318.15 K | 941.7
323.15 K | 936.9

CCCC[n+]1ccn(C)c1.F[P-](F)(F)(F)(F)F + COCCO
mass density [kg/m3]
Conditions | x1 = 0.0966 | x1 = 0.1943 | x1 = 0.2887 | x1 = 0.3979 | x1 = 0.4792 | x1 = 0.5943 | x1 = 0.6753 | x1 = 0.8101 | x1 = 0.8849 | x1 = 1
298.15 K | 1054.2 | 1125.7 | – | 1227.1 | 1256.1 | – | 1309.6 | 1337.1 | – | 1367.2
303.15 K | 1049.7 | 1121.2 | 1174.5 | – | 1251.8 | 1285.5 | 1305.4 | 1332.9 | – | 1363
308.15 K | 1045.2 | 1116.7 | 1170.1 | – | 1247.4 | 1281.3 | – | 1328.7 | 1341.6 | –
313.15 K | 1040.7 | 1112.3 | 1165.6 | 1214 | 1243.1 | 1277 | – | 1324.5 | 1337.4 | 1354.5
318.15 K | 1036.1 | 1107.8 | 1161.2 | – | 1238.7 | 1272.7 | – | 1320.2 | 1333.2 | –
323.15 K | 1031.5 | 1103.3 | 1156.7 | 1205.1 | 1234.3 | 1268.4 | 1288.3 | 1316 | – | 1346
